Experimental data from PubChem BioAssay AID588382 (National Center for Advancing Translational Sciences (NCATS), 2011).
Several values for one entry are separate records, joined by “and”; a condition that tells them apart may be missing. Equal entries are not always repeated. In all, about 1,300 compounds went through this assay and about 150 (12%) were called active. This list was built around the results that the source calls inconclusive (neither active nor inactive); the mix of calls is not that of the screen. The call rests on the fitted dose curve; in most records, active means well fitted cell-killing curve with a large enough effect; inconclusive means small, poorly fitted or top-dose-only effect, or effect the other way; inactive means flat fitted curve, though single readings scatter. Potencies beside an inconclusive call are fits to weak or partial responses and may not hold up.

Assay: qHTS of small molecules that selectively kill Giardia lamblia: Hit Validation in HepG2 cytotox;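 further: compound exposure lasted overnight at 37 deg C; nearly all actives have a fitted effect of over 55% in size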
Settings: cell viability; Potency: HepG2 cytotoxicity; series mostly up to 38.3 µM
How it was run: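 HepG2 cells seeded and incubated overnight at 37 deg C, then 23 nL compound added by pintool and incubated overnight at 37 deg C. Viability read as ATP luminescence with ATPLite after 15 min at room temperature.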
Potency means the concentration at half of the fitted maximal effect; tags describe the fitted curve by direction and shape.

Q: Which Potency does the source give for `O=C(Nc1nccs1)c1cc([N+](=O)[O-])ccc1Cl` here?
A: The Potency was “inactive”.

Q: For `Cc1cc(C(=O)COC(=O)c2cccc(NS(C)(=O)=O)c2)c(C)n1CC1CCCO1` (centres undefined), which Potency is on record?
A: Its Potency is inconclusive: 5.85 µM [cytotoxic, full curve, poor fit].

Q: With `COc1ccccc1CN=c1c([N+](=O)[O-])nn(-c2ccc3c(c2)OCCO3)n1O` as the compound, how does the Potency read?
A: The Potency was inconclusive: 5.85 µM [rising, partial curve, poor fit].

Q: Which Potency does the source give for `Cc1ccc(S(=O)(=O)N2CCN(C(=O)COc3ccc(C)nc3[N+](=O)[O-])CC2)c(C)c1` here?
A: Its Potency is “inactive”.

Q: With `O=C(Nc1nc(-c2cccs2)cs1)c1ccc([N+](=O)[O-])o1` as the compound, how does the Potency read?
A: The Potency was active: 1.85 µM.

Q: With `CC(NC(=O)c1ccc([N+](=O)[O-])o1)C12CC3CC(CC(C3)C1)C2` (centres undefined) as the compound, how does the Potency read?
A: Its Potency is inconclusive: 23.3 µM [cytotoxic, single point].

Q: With `Cc1cccc(NC(=O)c2ccc([N+](=O)[O-])s2)n1` as the compound, how does the Potency read?
A: The Potency was inconclusive: 7.36 µM [cytotoxic, partial curve].

Q: Which Potency does the source give for `O=C1C2C3C=CC(C3)C2C(=O)N1Nc1ccc([N+](=O)[O-])cc1[N+](=O)[O-]` (centres undefined) here?
A: Its Potency is “inactive”.

Q: For `O=C1SCCN1N=Cc1ccc([N+](=O)[O-])o1`, which Potency is on record?
A: Its Potency is inconclusive: 0.927 µM [cytotoxic, full curve, poor fit].

Q: For `O=C(c1ccco1)N1CCN(Cc2cc(=O)c(OCc3ccc([N+](=O)[O-])cc3)co2)CC1`, which Potency is on record?
A: Its Potency is “inactive”.

Q: For `Nc1ccc(/C=C/c2nccc3ccccc23)cc1`, which Potency is on record?
A: The Potency was inconclusive: 0.464 µM [cytotoxic, full curve].

Q: With `Cc1oc2c(c1C(=O)N1CCOCC1)C(=O)c1ccccc1C2=O` as the compound, how does the Potency read?
A: The Potency was active: 4.65 µM.

Q: Which Potency does the source give for `O=C(CC12CC3CC(CC(C3)C1)C2)N/N=C/c1ccc([N+](=O)[O-])o1` here?
A: The Potency was active: 16.5 µM.

Q: Which Potency does the source give for `O=[n+]1c2c(n([O-])c3cc(Br)ccc31)CCC2` here?
A: The Potency was “inactive”.

Q: With `CSC1SCC2C(=O)N(C)C(C(C)C)C(=O)OCC(NC(=O)c3cnc4ccccc4n3)C(=O)NC(C)C(=O)N(C)C1C(=O)N(C)C(C(C)C)C(=O)OCC(NC(=O)c1cnc3ccccc3n1)C(=O)NC(C)C(=O)N2C` (centres undefined) as the compound, how does the Potency read?
A: The Potency was active: 0.0117 µM.

Q: For `CCN(CC)CCCNc1nc2ccccc2c2[nH]c3ccc(OC)cc3c12`, which Potency is on record?
A: Its Potency is active: 2.61 µM.

Q: With `O=C(Nc1ccc(Cl)cn1)c1ccccc1[N+](=O)[O-]` as the compound, how does the Potency read?
A: The Potency was “inactive”.

Q: Which Potency does the source give for `O=C(/C=C/c1ccc([N+](=O)[O-])s1)N1CCCCC1` here?
A: The Potency was inconclusive: 13.1 µM [cytotoxic, single point].

Q: For `N#Cc1c(Nc2ccccc2)[n+]([O-])c2ccc(Cl)cc2[n+]1[O-]`, which Potency is on record?
A: The Potency was active: 3.29 µM.

Q: With `CCOC(=O)C1=C(C)N=c2s/c(=C/c3cccc([N+](=O)[O-])c3O)c(=O)n2C1c1ccccc1` (centres undefined) as the compound, how does the Potency read?
A: Its Potency is inconclusive: 11.7 µM [rising, single point].

Q: Which Potency does the source give for `O=C(CCc1ccccc1)Nc1ncc([N+](=O)[O-])s1` here?
A: Its Potency is inconclusive: 2.61 µM [cytotoxic, partial curve, poor fit].

Q: Which Potency does the source give for `CN1CCN(c2ccc(NC(=O)c3ccc([N+](=O)[O-])o3)cc2Cl)CC1` here?
A: The Potency was active: 3.69 µM.

Q: For `O=C(COc1cccnc1[N+](=O)[O-])Nc1ccc2c(c1)OC(F)(F)O2`, which Potency is on record?
A: The Potency was inconclusive: 1.85 µM [rising, single point].

Q: With `O=C(N/N=C/c1ccc([N+](=O)[O-])o1)c1sc2ccccc2c1Cl` as the compound, how does the Potency read?
A: The Potency was inconclusive: 18.5 µM [cytotoxic, single point].

Q: For `O=[N+]([O-])c1cccn2cc(-c3ccc(Br)cc3)nc12`, which Potency is on record?
A: The Potency was inconclusive: 16.5 µM [rising, partial curve, poor fit].

Q: Which Potency does the source give for `Cc1ccc(N=c2c([N+](=O)[O-])nn(-c3ccccc3)n2O)c(C)c1` here?
A: The Potency was “inactive”.

Q: Which Potency does the source give for `CCN1/C(=C\c2ccc3ccccc3[n+]2CC)Sc2cc(C)ccc21` here?
A: The Potency was active: 4.65 µM.

Q: Which Potency does the source give for `CC(C)C(=O)N1CCN(c2ccccc2NC(=O)c2ccc([N+](=O)[O-])o2)CC1` here?
A: Its Potency is inconclusive: 0.521 µM [cytotoxic, full curve, poor fit].

Q: For `Cc1ccc(C(C(=O)NCc2ccco2)N(C(=O)CNC(=O)c2cccs2)c2c(C)cccc2C)cc1` (centres undefined), which Potency is on record?
A: Its Potency is “inactive”.

Q: Which Potency does the source give for `Cc1ccc(C)c(-c2nnc(NC(=O)c3ccc([N+](=O)[O-])o3)o2)c1` here?
A: Its Potency is inconclusive: 23.3 µM [cytotoxic, single point].

Q: For `O=C(N/N=C/c1ccc([N+](=O)[O-])o1)c1cc2c(ccc3ccccc32)o1`, which Potency is on record?
A: Its Potency is inconclusive: 16.5 µM [cytotoxic, single point].

Q: With `Cc1cc(C(=O)N/N=C/c2ccc([N+](=O)[O-])s2)n[nH]1` as the compound, how does the Potency read?
A: The Potency was inconclusive: 23.3 µM [cytotoxic, single point].

Q: With `N#Cc1c(NC(=O)c2ccc([N+](=O)[O-])o2)sc2c1CCC2` as the compound, how does the Potency read?
A: The Potency was inconclusive: 13.1 µM [cytotoxic, single point].

Q: For `O=C(Cc1csc(Nc2nc(=S)[nH]c3ccccc23)n1)NCCCN1CCN(c2ccccc2F)CC1`, which Potency is on record?
A: Its Potency is active: 16.5 µM.

Q: For `C(=C\c1cnc2ccccc2n1)/c1ccc2c(c1)OCO2`, which Potency is on record?
A: Its Potency is inconclusive: 2.07 µM [cytotoxic, full curve].

Q: For `CCN(CC)C(=O)CSc1nnc2nnc3cc(Cl)ccc3n12`, which Potency is on record?
A: Its Potency is inconclusive: 14.7 µM [cytotoxic, single point].

Q: With `CCCOc1ccc(CCC(=O)N/N=C/c2ccc([N+](=O)[O-])o2)cc1` as the compound, how does the Potency read?
A: Its Potency is inconclusive: 20.7 µM [cytotoxic, single point].

Q: For `O=C(COc1cccnc1[N+](=O)[O-])Nc1ccc(Cl)cc1F`, which Potency is on record?
A: The Potency was inconclusive: 5.85 µM [rising, partial curve].

Q: With `CC(=O)c1c(C)n([O-])c2ccc(C)cc2[n+]1=O` as the compound, how does the Potency read?
A: Its Potency is “inactive”.

Q: Which Potency does the source give for `O=C(N/N=C/c1ccc([N+](=O)[O-])o1)C1CCCC1` here?
A: Its Potency is inconclusive: 23.3 µM [cytotoxic, single point].

Q: Which Potency does the source give for `O=C(Nc1c(Cl)ccc2nsnc12)c1ccc([N+](=O)[O-])o1` here?
A: The Potency was inconclusive: 23.3 µM [cytotoxic, single point].

Q: With `CCN(CCCNC(=O)c1nn(C)c2c1CS(=O)(=O)c1ccccc1-2)Cc1ccccc1` as the compound, how does the Potency read?
A: Its Potency is “inactive”.

Q: Which Potency does the source give for `CCn1c(=NC(=O)c2cccc(N3C(=O)CCC3=O)c2)sc2c(OC)ccc(OC)c21` here?
A: Its Potency is “inactive”.

Q: For `O=C(CCCn1cnc([N+](=O)[O-])n1)Nc1ccc(F)c(Cl)c1`, which Potency is on record?
A: The Potency was “inactive”.

Q: Which Potency does the source give for `O=[N+]([O-])c1ccc(-c2ccn[nH]2)o1` here?
A: Its Potency is “inactive”.

Q: Which Potency does the source give for `NC(=O)c1ccc(Nc2ccc([N+](=O)[O-])cc2[N+](=O)[O-])cc1` here?
A: The Potency was “inactive”.

Q: With `CCOC(=O)c1c(C)[nH]c2c1-c1ccccc1C(=O)C2=O` as the compound, how does the Potency read?
A: The Potency was active: 2.61 µM.

Q: For `Fc1ccc2cc(-c3ccsc3)ncc2c1`, which Potency is on record?
A: The Potency was “inactive”.

Q: Which Potency does the source give for `CCCOC(=O)/C(=C\c1ccc([N+](=O)[O-])o1)NC(=O)c1ccccc1` here?
A: The Potency was “inactive”.

Q: For `Cc1cc([N+](=O)[O-])nn1Cc1ccc(F)cc1`, which Potency is on record?
A: Its Potency is “inactive”.

Q: For `NC(=O)c1oc2ccccc2c1NC(=O)c1ccc([N+](=O)[O-])o1`, which Potency is on record?
A: Its Potency is active: 2.61 µM.

Q: For `COc1ccc(-n2nc([N+](=O)[O-])c(=NCc3ccc4c(c3)OCO4)n2O)cc1`, which Potency is on record?
A: The Potency was “inactive”.

Q: For `O=[N+]([O-])c1ccccc1S(=O)(=O)Oc1ccc(/C=N/n2cnnc2)cc1`, which Potency is on record?
A: The Potency was inconclusive: 14.7 µM [cytotoxic, partial curve, poor fit].

Q: For `COc1ccc(C(=O)c2c3ccc(C(F)(F)F)cc3[n+]([O-])n2CCCN)cc1`, which Potency is on record?
A: The Potency was “inactive”.

Q: For `Cc1cc(C)nc(N/N=C/c2ccc(Cl)cc2)n1`, which Potency is on record?
A: Its Potency is “inactive”.

Q: With `O=[N+]([O-])/C(Cl)=C(/NCCO)C(Cl)=C(Cl)Cl` as the compound, how does the Potency read?
A: The Potency was “inactive”.

Q: For `CN(C)CCCn1cnc2c(c1=N)C(c1ccccc1)c1ccc3ccccc3c1O2` (centres undefined), which Potency is on record?
A: The Potency was active: 2.07 µM.

Q: With `Cc1[nH]n(S(=O)(=O)c2ccccc2)c(=O)c1N=Nc1cccc(Cl)c1` as the compound, how does the Potency read?
A: Its Potency is “inactive”.

Q: Which Potency does the source give for `O=C(c1ccc2c3n(nc2c1)-c1ccccc1CO3)N1CCCCC1` here?
A: Its Potency is inconclusive: 20.7 µM [cytotoxic, partial curve, poor fit].

Q: For `O=[N+]([O-])c1c(Nc2ccc(Br)cc2)ccc2nonc12`, which Potency is on record?
A: The Potency was inconclusive: 18.5 µM [cytotoxic, single point].

Q: For `O=C(Nc1ccccc1O)c1ccc([N+](=O)[O-])cc1`, which Potency is on record?
A: The Potency was “inactive”.

Q: With `O=C(N/N=C/c1ccc([N+](=O)[O-])s1)C(O)c1ccccc1` (centres undefined) as the compound, how does the Potency read?
A: Its Potency is active: 13.1 µM.

Q: For `CC(=O)CSc1ccc(-c2nc3cc(C)c(C)cc3[nH]2)cn1`, which Potency is on record?
A: The Potency was inconclusive: 3.29 µM [cytotoxic, full curve].

Q: Which Potency does the source give for `O=C1c2ccccc2C(=O)C1c1ccc2ccccc2n1` here?
A: The Potency was inconclusive: 1.85 µM [cytotoxic, full curve] and inconclusive: 3.69 µM [cytotoxic, full curve].

Q: With `COc1ccc2c(c1)[n+](=O)c(C(C)=O)c(C)n2[O-]` as the compound, how does the Potency read?
A: The Potency was “inactive”.

Q: For `c1cc(-c2cc3cc(N4CCOCC4)ccc3o2)cs1`, which Potency is on record?
A: The Potency was inconclusive: 1.47 µM [cytotoxic, full curve].

Q: For `CC(Oc1ccccc1)C(=O)Nc1nnc(S(=O)(=O)N2CCCCC2)s1` (centres undefined), which Potency is on record?
A: The Potency was inconclusive: 5.21 µM [rising, single point].

Q: Which Potency does the source give for `CCN(CC)C(=S)SSC(=S)N(CC)CC` here?
A: Its Potency is inconclusive: 5.85 µM [rising, partial curve, poor fit].

Q: For `O=c1c([N+](=O)[O-])cccn1Cc1cccc(Cl)c1`, which Potency is on record?
A: Its Potency is inconclusive: 0.464 µM [rising, partial curve, poor fit].

Q: Which Potency does the source give for `CN1C(=O)/C(=C/c2ccc(O)c([N+](=O)[O-])c2)NC1=S` here?
A: Its Potency is “inactive”.

Q: With `CCc1cccc(N=c2c([N+](=O)[O-])nn(-c3ccc(Cl)cc3)n2O)c1` as the compound, how does the Potency read?
A: The Potency was “inactive”.

Q: For `CC(C)(C)C1C/C(=C/c2ccccn2)C(=O)/C(=C/c2ccccn2)C1` (centres undefined), which Potency is on record?
A: Its Potency is active: 0.585 µM.

Q: For `CCCC(=O)N1CCN(c2ccc(NC(=O)c3ccc([N+](=O)[O-])o3)cc2)CC1`, which Potency is on record?
A: The Potency was active: 3.29 µM.

Q: Which Potency does the source give for `O=C1N=C(N2CCCCC2)S/C1=C\c1ccc(Br)cc1` here?
A: Its Potency is “inactive”.
